Source: publication PMC11374477 (Journal of the American Chemical Society, 2024)

Legend:
[1] = molecular target: HnH6H (Hyoscyamus niger, UniProt P24397); conditions: vanadyl-succinate complex; labelled compound (7-d1)
[2] = molecular target: AbH6H (Atropa belladonna, UniProt Q9XJ43); conditions: co-product; V complex with Hyo
Chain of AbH6H (Q9XJ43 1-343): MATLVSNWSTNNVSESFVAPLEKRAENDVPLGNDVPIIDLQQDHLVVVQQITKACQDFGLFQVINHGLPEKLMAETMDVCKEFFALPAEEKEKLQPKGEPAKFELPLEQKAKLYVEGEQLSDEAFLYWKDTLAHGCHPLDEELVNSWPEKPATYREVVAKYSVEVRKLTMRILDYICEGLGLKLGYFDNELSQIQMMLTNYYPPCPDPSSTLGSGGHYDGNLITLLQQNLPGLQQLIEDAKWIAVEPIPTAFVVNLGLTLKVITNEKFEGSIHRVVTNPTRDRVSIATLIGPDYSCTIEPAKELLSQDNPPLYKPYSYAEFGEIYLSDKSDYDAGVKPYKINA

Chain of HnH6H (P24397 whole entry, looked up): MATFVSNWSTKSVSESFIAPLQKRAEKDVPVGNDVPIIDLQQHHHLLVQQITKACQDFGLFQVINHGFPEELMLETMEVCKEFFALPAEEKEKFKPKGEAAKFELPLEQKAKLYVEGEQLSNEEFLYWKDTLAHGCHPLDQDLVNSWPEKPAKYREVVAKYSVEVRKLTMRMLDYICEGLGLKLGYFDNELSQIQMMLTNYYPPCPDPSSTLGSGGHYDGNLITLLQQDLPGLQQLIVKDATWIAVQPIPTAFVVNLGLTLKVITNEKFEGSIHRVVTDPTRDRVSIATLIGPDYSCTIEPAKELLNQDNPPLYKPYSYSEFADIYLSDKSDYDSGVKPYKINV

Row | Structure (SMILES) | 2H-HYSCORE spectroscopy [1] | X-ray crystallography [2]
1 | CN1[C@H]2C[C@H](OC(=O)[C@H](CO)c3ccccc3)C[C@@H]1[C@@H](O)C2 [6-OH-Hyo, 6β-hydroxyhyoscyamine] | HYSCORE spectra for the HnH6H•V^IVO•succ•7-d1-6-OH-Hyo (epoxidation) complex | –
2 | O=C(O)CCC(=O)O [succ, succinate] | – | Structures obtained from crystals of the AbH6H•V^IVO•succ•Hyo and AbH6H•V^IVO•succ•6-OH-Hyo complexes
